According to PubChem BioAssay AID1508642 (National Center for Advancing Translational Sciences (NCATS), 2021):
Hit rate of the full screen: of about 43,000 compounds, about 200 (0.47%) were called active. Not shown: some 12% with an inconclusive outcome. The call rests on the fitted dose curve; in most records, active means well fitted cell-killing curve with a large enough effect; inconclusive means small, poorly fitted or top-dose-only effect, or effect the other way; inactive means flat fitted curve, though single readings scatter. Some of the results follow.

Assay: Cell viability qHTS assay in S16 Pmp22-F2sN cells; further: nearly all actives have a fitted effect of over 65% in size
Conditions: S16 Pmp22-F2sN Schwann cells (luciferase reporters placed in the Pmp22 gene) viability, CellTiter-Glo, 24 h; series mostly up to 57.5 µM; activity change, negative = cytotoxicity: at the top concentration
How it was run: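 Rat S16 Schwann reporter line, 24 h treatment with library compounds delivered at 23 nL per well. Cell viability by CellTiter-Glo luminescence.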
On the % scale 0 is the no-effect control and ±100 the full control effect.

SMILES | activity change, negative = cytotoxicity
CCOc1cccc2cc(-c3cn4c(n3)sc3ccccc34)c(=O)oc12 | inactive: 0.112%
Cc1ccsc1CN(C(=O)COc1ccc(Cl)cc1)C1CCS(=O)(=O)C1 (stereo not drawn) | inactive: -6.12%
CC1CCN(S(=O)(=O)c2ccc3c(ccc(=O)n3CC(=O)NCc3ccccc3Cl)c2)CC1 | inactive: -0.625%
Cc1ccc(CNC(=O)CSc2nnc(C)c3c(C)n(-c4ccccc4)nc23)cc1 | inactive: -1.49%
Cc1ccc(-c2nnc(Nc3ccccc3)c3ccccc23)cc1S(=O)(=O)N1CCOCC1 | inactive: 1.4%
Cc1ccc(CNC(=O)c2ccc3c(c2)N(Cc2ccccc2Cl)C(=O)CS3)cc1 | inactive: 22.7%
Cc1cccc(N2CCN(C(=O)c3oc(=O)c4ccccc4c3-c3ccccc3)CC2C)c1 (stereo not drawn) | inactive: 13%
Cc1cc(OCC(=O)NC(Cc2c[nH]c3ccccc23)C(=O)O)ccc1Cl (stereo not drawn) | inactive: 17.9%
Cc1oc2ncn(C)c(=O)c2c1C(=O)Nc1ccc(F)cc1 | inactive: 14.7%
CCOC(=O)c1[nH]c(C)c(CCC(=O)Nc2ccccc2C(=O)OC)c1C | inactive: -29.7%
CCc1nn(CC(=O)NCCc2ccc(Cl)cc2)c(=O)c2cc3ccccc3n12 | inactive: 6.51%
Cc1cc(N2CCN(c3ccc(F)cc3)CC2)n2nc(-c3ccc(Cl)cc3)nc2n1 | inactive: 1.3%
COc1cccc(CNC(=O)c2cccc(-n3c(C)nc4cccnc43)c2C)c1 | inactive: -7.13%
Cc1cccc(CSc2nc(=O)c3c(n2C)NC(=O)CC3c2cc(F)cc(F)c2)c1 (stereo not drawn) | inactive: -3.36%
CC(C)OCCCNC(=O)c1ccc(Cn2c(=O)c3cccn3c3cccnc32)cc1 | inactive: -3.1%
Cc1ccc(-c2nc(SCC(=O)NCC3CCCO3)c(-c3ccc(C)cc3)[nH]2)cc1 (stereo not drawn) | inactive: 4.34%
O=C(Nc1cccc(Cl)c1)c1csnn1 | inactive: -12.3%
Cc1nnc(N2CCN(C(=O)Nc3cccc(C(F)(F)F)c3)CC2)c2nn(-c3ccccc3)c(C)c12 | inactive: -19.3%
NC(=O)c1cc(S(=O)(=O)NCC2CCC(C(=O)Nc3ccc(Cl)cc3)CC2)cs1 (stereo not drawn) | inactive: 1.58%
O=C(Nc1ccc(O)cc1)c1cccc(S(=O)(=O)N2CCOCC2)c1 | inactive: 25%
O=C(CSc1nc2c([nH]c3ccccc32)c(=O)n1-c1ccccc1)N1CCCC1 | inactive: 13.8%
COc1ccc(C)cc1NC(=O)c1ccc2c(Cl)c3c(nc2c1)CCC3 | inactive: 9.08%
Cn1nc(C(=O)N2CCN(c3ccccc3)CC2)c2c1-c1ccccc1S(=O)(=O)C2 | inactive: 4.33%
COc1ccc(S(=O)(=O)c2c(SC)nn(Cc3ccccc3C)c2NC(C)=O)cc1 | inactive: 3.22%

SMILES | activity change, negative = cytotoxicity
COc1cccc(NS(=O)(=O)c2ccc3[nH]cc(C(=O)N(C)C4CCCCC4)c(=O)c3c2)c1 | inactive: -18.6%
CCCCn1c(=O)c2oc3ccccc3c2n(CC(=O)Nc2cccc(Cl)c2)c1=O | inactive: 7.86%
CCCCc1nn2c(=O)cc(COC(=O)c3ccccc3NC(=O)c3ccccc3OC)nc2s1 | inactive: 2.48%
CCCC(=O)N1c2nc(C(C)C)nn2C2(CCCCC2)[C@@H]2CCCC[C@@H]21 | inactive: -1.02%
Cc1ccc(OCC(=O)Nc2ccc3nn(-c4ccc(Cl)cc4)nc3c2)cc1 | inactive: 8.33%
O=c1c2oc3ccccc3c2n(Cc2ccccc2)c(=O)n1Cc1ccc2c(c1)OCO2 | inactive: 1.02%
CCOC(=O)c1cccc(Nc2ccc3cc(S(=O)(=O)N4CCCCC4)ccc3n2)c1 | inactive: -19.8%
COc1cc(C2CC(=O)Nc3c2c(=O)[nH]c2ncnn32)ccc1O (stereo not drawn) | inactive: -1.45%
CCOC(=O)C1CCCN(C(=O)c2ccc3c(c2)N(Cc2ccccc2)C(=O)c2ccccc2S3=O)C1 (stereo not drawn) | inactive: -1.22%
Cc1ccc(C)c(NC(=O)Cn2c(=O)n(CCC(=O)NCc3ccc4c(c3)OCO4)c(=O)c3ccccc32)c1 | inactive: 26.2%
CCCN1CCCc2cc(CN(CCCN3CCOCC3)C(=O)Nc3ccc(CC)cc3)ccc21 | inactive: 19.5%
COc1ccc(CN2C(=O)C(NC(=O)c3ccccc3C)(C(F)(F)F)N=C2c2ccccc2)cc1 (stereo not drawn) | inactive: -0.422%
Cc1nn(CC(=O)NCc2ccc(OC(C)C)cc2)c(=O)c2c(C)n(-c3ccc(Cl)cc3)nc12 | inactive: -12.9%
CCc1ccccc1NC(=O)Cn1nnc(C(=O)Nc2ccc(C)c(F)c2)c1N | inactive: -1.39%
Cc1ccc2oc(-c3ccc(Cl)c(NC(=O)c4ccc(-c5ccccc5[N+](=O)[O-])o4)c3)nc2c1 | inactive: -3.26%
COc1ccc2c(c1)-c1nc(NC(=O)c3ccc(Cl)cc3)sc1CC2 | inactive: 7.31%
COc1ccc(CNc2ncnc3c2nnn3C)cc1 | inactive: -21.4%
COc1ccccc1CCNc1ncnc2c1nnn2C | inactive: -11.6%
CCCCCOc1ccc(C2c3c(oc4ccccc4c3=O)C(=O)N2c2nc(C)c(C)s2)cc1OCC (stereo not drawn) | inactive: -3.27%
Cc1cccc(-n2c3nc(=O)n(C)c(=O)c-3cc3c(Cl)cccc32)c1C | inactive: 1.17%
CC(C)CCNC(=O)CSCc1cnn(-c2ccccc2)c1-n1cccc1 | inactive: 3%
CCc1nc(SCC(=O)Nc2ccc(NC(C)=O)cc2)n[nH]1 | inactive: -3.89%
Cc1ccc(-n2c(=O)c3ccc(C(=O)NCc4ccco4)cc3n(Cc3cccc(Cl)c3)c2=O)cc1 | inactive: -7.69%
CC(C)c1cnc2c(c1SCc1cccc(C(F)(F)F)c1)c(=O)n(C)c(=O)n2C | inactive: 1.2%
